# Among all 150,000 compounds or so, about 540 (0.36%) showed an effect of 50% or more. The list shows a part of the results.
# System: Plasmodium falciparum
# Assay: Primary screen in NF54 nanoGlo assay, in single point, at 2uM, 72h; a lower Z score goes with more inhibition
# Format: functional, Erythrocyte
# Settings: timepoint 72 hour
SMILES,% Inhibition [%],Z score
Cc1cc(CNc2nc(CCc3ccccc3)nc3c2cnn3C)n[nH]1,-7,1.38
Cc1nc[nH]c1CN1CCNC(=O)[C@@H](CC(C)C)NC(=O)c2cc(F)ccc2OCCn2cc(nn2)CC1,-3,0.38
CCCN(C(=O)c1cccs1)C1CCN(C(=O)C2CC(C)(O)C2)CC1 (stereo not drawn),-8,1.53
CCc1nc(NC2=NC(C)(C)C=C(C)N2)nc2ccccc12,1,-0.17
NS(=O)(=O)CC1CCCCN1C(=O)CC1CC2CCC1C2 (stereo not drawn),2,-0.19
O=C1C(CS(=O)(=O)c2ccc(F)cc2)=Nc2cccn21,4,-0.6
NC(=O)CCNC(=O)c1cn2cc(-c3ccccc3Cl)n(CC3CC3)c(=O)c2n1,-12,2.35
O=C(Cn1nc2c3ccc(Cl)cc3ncn2c1=O)NCc1ccc(F)cc1,-2,0.38
Cc1nc(N)nc(C)c1CC(=O)N(C)Cc1csc(-c2ccccc2)n1,0,-0.01
CC(C)Cc1n[nH]c(NC(=O)c2csc(NC3CC3)n2)n1,-11,1.17
COCCCN(CCC(=O)NCCN1CCOCC1)C(=O)c1cc(C)oc1C,3,-0.43
CCCC(CCC)C(=O)NCc1cccnc1,5,-0.71
COc1cccc(-c2nc3c([nH]2)CCN(C(=O)CC(C)(C)C)C3)c1,0,0.08
CCc1nc(CNC(=O)NCC2CCCOC2C(C)(C)C)cs1 (stereo not drawn),-7,0.89
Cn1n[n+](CC#N)c(C(=O)Nc2ccccc2)c1[O-],3,-0.46
C[C@@H](Cn1ccnc1)NC(=O)Cc1cccs1,-13,1.13
CC(C)c1nc(-c2noc(CS(=O)(=O)C3CC3)n2)cs1,-12,1.81
CCOC(=O)N1CCN(C(=O)C2c3ccccc3C(=O)N(C3CCCCC3)C2c2ccc(OC)cc2)CC1 (stereo not drawn),40,-4.5
CC1CCN(Cc2ccccc2CNc2ccc3nnnn3n2)CC1,-3,0.24
O=C1NCC2(CCN(c3ncccc3C(F)(F)F)CC2)O1,-5,0.82
O=C1CCc2cc(C(=O)c3c(F)cccc3F)ccc2N1,-2,0.32
COc1ccc(C(=O)N2CC[C@H](Nc3cccnc3)C2)c(OC)c1,-11,1.36
CC[C@](C)(O)c1cn(Cc2coc(C(C)(C)C)n2)nn1,-13,1.45
CNC(=O)[C@@H]1C[C@H](Oc2ccccc2)CN1S(=O)(=O)c1cc(OC)ccc1OC,-11,1.47

# Reference: ChEMBL document CHEMBL4888484, “Replenishing the malaria drug discovery pipeline: Screening and hit evaluation of the MMV Hit Generation Library 1 (HGL1) against asexual blood stage Plasmodium falciparum ,using a nano luciferase reporter read-out” (2022)
